In the RNAGym collection of RNA variant scans (doi:10.7554/elife.90254):
Read counts are not given, so values of variants with three or more changes are uncertain.

B1: LINE1-mini (parent)
chain: GGCAGAGCUCAACACAGCGUGGCAAAGUGGCUGUGGCUAGACUGCC

Variants of: B1
Assay: self-cleavage, relative activity (ratio to wild type); higher = more cleavage; in vitro, sequencing; the parent is a self-cleaving ribozyme

Variant	self-cleavage
C3U G22U C37A U38G	0.02
C3U G22U C37G A41C	0.02
C3U G22U G33A U34C	0.09
C3U G27A C37U	0.1
C3U G27A G29U G44U	0.16
C3U G27C G29U	0.12
C3U G27U C42A	0.21
C3U G27U C46U	0.17
C3U G27U G30A C31G	0.05
C3U G27U G40U	0.03
C3U G29A A41C	0.08
C3U G29A C31U G40U	0.01
C3U G29A U38A G40A C46A	0.13
C3U G29C G30C	0.13
C3U G29C G33U	0.03
C3U G29U A41U	0.53
C3U G30A A41U C46U	0.16
C3U G30C C37A	0.07
C3U G30U G36U	0.28
C3U G30U G44C C46G	0.01
C3U G33A A39C	0.08

Variant	self-cleavage
C3U G33A A39G	0.1
C3U G33C G36U	0.1
C3U G33U C37U	0.08
C3U G33U U38A	0.08
C3U G33U U43A	0.08
C3U G35C G36A G44U	0.11
C3U G35U C45A	0.1
C3U G36A U43G	0.1
C3U G36C C46U	0.26
C3U G36U C45U	0.07
C3U G40C G44U	0.02
C3U G44A C45G	0.1
C3U U9A A12C A39C	0.04
C3U U9A A16U G44C	0.03
C3U U9A C10A G40C	0.02
C3U U9A C23G	0.31
C3U U9A G17A A25G U28A A41C C45G	0.05
C3U U9A G17U C23U G33C C46U	0.05
C3U U9A G19C A26U G30U	0.03
C3U U9A G21A G27U G36C G40A	0.06
C3U U9A G22U G29C G33A G35U U38A U43C	0

Variant	self-cleavage
C3U U9A G30U A39C C42U	0.1
C3U U9A G33A	0.78
C3U U9A G35C U43G	0.19
C3U U9C A16G C42G	0.01
C3U U9C C13G C45U	0.01
C3U U9C G21A G33C A41U	0.03
C3U U9C G29A	0.04
C3U U9C U28A C37A G40C C46A	0.01
C3U U9G A11U U34G C42A	0.01
C3U U9G C18A A41U C46A	0.13
C3U U9G G17A G29C	0.03
C3U U9G G17A G29U	0.22
C3U U9G U32A	0.05
C3U U9G U32C U34A C42G	0.05
C3U U9G U43A	0.09
C3U U20A A25G U34G A41U	0.09
C3U U20A A39U G40A	0.09
C3U U20A C31U G36C	0.03
C3U U20A C46U	0.04
C3U U20A G21A G22A U43A G44A C45A	0.01
C3U U20A G22U G35A	0.17

Variant	self-cleavage
C3U U20C C31A G33U	0.05
C3U U20C C37G	0.05
C3U U20C G21U G29A	0.35
C3U U20C G36C A39C	0.05
C3U U20G C23A U32A	0.04
C3U U20G C42U G44C	0.08
C3U U20G G21C U28A C31A U32C	0.02
C3U U20G G33A	0.1
C3U U28C C37G	0.02
C3U U28C G29A	0.09
C3U U28C U32A	0.05
C3U U28G G36C	0.02
C3U U32A G33U A39G U43A	0.01
C3U U32C C42G	0.06
C3U U32C C45G	0.08
C3U U32C G33A U34G	0
C3U U32C G33U U34G	0.03
C3U U32C U43A C46U	0.05
C3U U32G C45A	0.07
C3U U34C U38G	0.01
